# Experimental data published in the supplement of paper PMC8728848.
# The list shows a part of the results.
# B1: UEA-I (Ulex europaeus), P22972 (protein)
# chain: SDDLSFKFKNFSQNGKDLSFQGDASVIETGVLQLNKVGNNLPDETGGIARYIAPIHIWNCNTGEVASFITSFSFFMETSANPKAATDGLTFFLAPPDSPLRRAGGYFGLFEDTKDNDSSYQTVAVEFDTIGSPVNFDDPGFPHIGIDVNRVKSINAERWNKRYGLNNVANVEIIYEASSKTLTASLTYPSDQTSISVTSIVDLKEILPEWVSVGFSGGTYIGRQATHEVLNWYFTSNLINTNS
# Assays:
# Test in all cases: glycan array binding signal (z-score within array); higher = stronger binding
# Conditions in all cases: glycan notation: IUPAC condensed, linker removed
# Fuc(a1-2)Gal = target: Fuc(a1-2)Gal
# Outline: (§1)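 Columns mapping to the same glycan were averaged after glycan names were converted to IUPAC-condensed notation. The data come from 3228 arrays in the Consortium for Functional Glycomics database, limited to those with an available protein sequence. Binding is reported as a within-array Z-score averaged across arrays of one protein sequence and across linkers.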
# Fuc(a1-2)Gal(b1-3)GalNAc = target: Fuc(a1-2)Gal(b1-3)GalNAc
# Outline: as §1
# [1] = target: Fuc(a1-2)Gal(b1-3)GalNAc(a1-3)[Fuc(a1-2)]Gal(b1-4)Glc
# Outline: as §1
# [2] = target: Fuc(a1-2)Gal(b1-3)GalNAc(a1-3)[Fuc(a1-2)]Gal(b1-4)GlcNAc
# Outline: as §1
# [3] = target: Fuc(a1-2)Gal(b1-3)GalNAc(b1-3)Gal
# Outline: as §1
# [4] = target: Fuc(a1-2)Gal(b1-3)GalNAc(b1-3)Gal(a1-4)Gal(b1-4)Glc
# Outline: as §1
# [5] = target: Fuc(a1-2)Gal(b1-3)GalNAc(b1-3)Gal(b1-4)Glc
# Outline: as §1
# [6] = target: Fuc(a1-2)Gal(b1-3)GalNAc(b1-4)[Neu5Ac(a2-3)]Gal(b1-4)Glc
# Outline: as §1
# Fuc(a1-2)Gal(b1-3)GlcNAc = target: Fuc(a1-2)Gal(b1-3)GlcNAc
# Outline: as §1
# [7] = target: Fuc(a1-2)Gal(b1-3)GlcNAc(b1-2)Man(a1-3)[Fuc(a1-2)Gal(b1-3)GlcNAc(b1-2)Man(a1-6)]Man(b1-4)GlcNAc(b1-4)GlcNAc
# Outline: as §1
# [8] = target: Fuc(a1-2)Gal(b1-3)GlcNAc(b1-2)Man(a1-3)[Fuc(a1-2)Gal(b1-3)GlcNAc(b1-2)Man(a1-6)]Man(b1-4)GlcNAc(b1-4)[Fuc(a1-6)]GlcNAc
# Outline: as §1
# [9] = target: Fuc(a1-2)Gal(b1-3)GlcNAc(b1-3)Gal(b1-4)Glc
# Outline: as §1
# [10] = target: Fuc(a1-2)Gal(b1-3)GlcNAc(b1-3)GalNAc
# Outline: as §1
# [11] = target: Fuc(a1-2)Gal(b1-3)GlcNAc(b1-3)[Fuc(a1-2)Gal(b1-3)GlcNAc(b1-6)]GalNAc
# Outline: as §1
# [12] = target: Fuc(a1-2)Gal(b1-3)GlcNAc(b1-3)[Gal(b1-4)GlcNAc(b1-6)]Gal(b1-4)Glc
# Outline: as §1
# [13] = target: Fuc(a1-2)Gal(b1-3)GlcNAc(b1-3)[Neu5Ac(a2-6)Gal(b1-4)GlcNAc(b1-6)]Gal(b1-4)Glc
# Outline: as §1
# [14] = target: Fuc(a1-2)Gal(b1-3)GlcNAc6S
# Outline: as §1
# [15] = target: Fuc(a1-2)Gal(b1-3)[Fuc(a1-4)]GlcNAc
# Outline: as §1
# [16] = target: Fuc(a1-2)Gal(b1-3)[Fuc(a1-4)]GlcNAc(b1-2)Man(a1-3)[Fuc(a1-2)Gal(b1-3)[Fuc(a1-4)]GlcNAc(b1-2)Man(a1-3)]Man(b1-4)GlcNAc(b1-4)GlcNAc
# Outline: as §1
# [17] = target: Fuc(a1-2)Gal(b1-3)[Fuc(a1-4)]GlcNAc(b1-2)Man(a1-3)[Fuc(a1-2)Gal(b1-3)[Fuc(a1-4)]GlcNAc(b1-2)Man(a1-6)]Man(b1-4)GlcNAc(b1-4)[Fuc(a1-6)]GlcNAc(b1-4)[Fuc(a1-6)]GlcNAc
# Outline: as §1
# [18] = target: Fuc(a1-2)Gal(b1-3)[Fuc(a1-4)]GlcNAc(b1-3)[Fuc(a1-3)[Gal(b1-4)]GlcNAc(b1-6)]Gal(b1-4)Glc
# Outline: as §1
# [19] = target: Fuc(a1-2)Gal(b1-3)[Fuc(a1-4)]GlcNAc(b1-3)[Gal(b1-4)GlcNAc(b1-6)]Gal(b1-4)Glc
# Outline: as §1
# [20] = target: Fuc(a1-2)Gal(b1-4)Fuc(a1-3)]GlcNAc(b1-2)Man(a1-3)[Fuc(a1-2)Gal(b1-4)[Fuc(a1-3)]GlcNAc(b1-2)Man(a1-6)]Man(b1-4)GlcNAc(b1-4)GlcNAc
# Outline: as §1
# Fuc(a1-2)Gal(b1-4)Glc = target: Fuc(a1-2)Gal(b1-4)Glc
# Outline: as §1
# Fuc(a1-2)Gal(b1-4)Glc6S = target: Fuc(a1-2)Gal(b1-4)Glc6S
# Outline: as §1
# Fuc(a1-2)Gal(b1-4)GlcNAc = target: Fuc(a1-2)Gal(b1-4)GlcNAc
# Outline: as §1
# [21] = target: Fuc(a1-2)Gal(b1-4)GlcNAc(b1-2)Man
# Outline: as §1
# [22] = target: Fuc(a1-2)Gal(b1-4)GlcNAc(b1-2)Man(a1-3)[Fuc(a1-2)Gal(b1-4)GlcNAc(b1-2)Man(a1-6)]Man(b1-4)GlcNAc(b1-4)GlcNAc
# Outline: as §1
# [23] = target: Fuc(a1-2)Gal(b1-4)GlcNAc(b1-2)Man(a1-3)[Fuc(a1-2)Gal(b1-4)GlcNAc(b1-2)Man(a1-6)]Man(b1-4)GlcNAc(b1-4)[Fuc(a1-6)]GlcNAc
# Outline: as §1
# [24] = target: Fuc(a1-2)Gal(b1-4)GlcNAc(b1-2)[Fuc(a1-2)Gal(b1-4)GlcNAc(b1-4)]Man(a1-3)[Fuc(a1-2)Gal(b1-4)GlcNAc(b1-2)Man(a1-6)]Man(b1-4)GlcNAc(b1-4)GlcNAc
# Outline: as §1
binder,measurement,setting,value
B1,glycan array binding signal (z-score),Fuc(a1-2)Gal,1.09
same,glycan array binding signal (z-score),Fuc(a1-2)Gal(b1-3)GalNAc,-0.304
same,glycan array binding signal (z-score),[1],-0.168
same,glycan array binding signal (z-score),[2],-0.189
same,glycan array binding signal (z-score),[3],-0.118
same,glycan array binding signal (z-score),[4],-0.224
same,glycan array binding signal (z-score),[5],-0.217
same,glycan array binding signal (z-score),[6],-0.215
same,glycan array binding signal (z-score),Fuc(a1-2)Gal(b1-3)GlcNAc,-0.129
same,glycan array binding signal (z-score),[7],-0.085
same,glycan array binding signal (z-score),[8],-0.153
same,glycan array binding signal (z-score),[9],-0.217
same,glycan array binding signal (z-score),[10],-0.186
same,glycan array binding signal (z-score),[11],-0.161
same,glycan array binding signal (z-score),[12],-0.092
same,glycan array binding signal (z-score),[13],-0.101
same,glycan array binding signal (z-score),[14],-0.071
same,glycan array binding signal (z-score),[15],-0.22
same,glycan array binding signal (z-score),[16],-0.072
same,glycan array binding signal (z-score),[17],-0.186
same,glycan array binding signal (z-score),[18],-0.125
same,glycan array binding signal (z-score),[19],-0.187
same,glycan array binding signal (z-score),[20],-0.131
same,glycan array binding signal (z-score),Fuc(a1-2)Gal(b1-4)Glc,4.65
same,glycan array binding signal (z-score),Fuc(a1-2)Gal(b1-4)Glc6S,8.87
same,glycan array binding signal (z-score),Fuc(a1-2)Gal(b1-4)GlcNAc,5.04
same,glycan array binding signal (z-score),[21],-0.188
same,glycan array binding signal (z-score),[22],1.85
same,glycan array binding signal (z-score),[23],0.643
same,glycan array binding signal (z-score),[24],1.41
